# Source: the supplement of paper PMC8728848
# This is one part of the list.
# B1: Gal 3 (Homo sapiens), P17931 (protein)
# chain: MADNFSLHDALSGSGNPNPQGWPGAWGNQPAGAGGYPGASYPGAYPGQAPPGAYPGQAPPGAYHGAPGAYPGAPAPGVYPGPPSGPGAYPSSGQPSAPGAYPATGPYGAPAGPLIVPYNLPLPGGVVPRMLITILGTVKPNANRIQLDFQRGNDVAFHFNPRFNENNRRVIVCNTKLDNNWGREERQSVFPFESGKPFKIQVLVEPDHFKVAVNDAHLLQYNHRVKKLNEISKLGISGDIDLTSASYTMI
# Legend:
# Assay in all cases: glycan array binding signal (z-score within array); higher = stronger binding
# Details in all cases: glycan notation: IUPAC condensed, linker removed; mutation: A146Q
# [1] = molecular target: Fuc(a1-3)[Gal3S(b1-4)]GlcNAc
# How it was run: (§1)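 Arrays were curated from the Consortium for Functional Glycomics database, 3228 in total, and kept only where the protein sequence was available. Binding is expressed as a within-array Z-score. This score was averaged across arrays of the same protein sequence at different concentrations or buffers and across linkers, and negative values can be read as non-binding.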
# [2] = molecular target: Fuc(a1-3)[Gal3S(b1-4)]GlcNAc6S
# How it was run: as §1
# [3] = molecular target: Fuc(a1-3)[GalNAc(b1-4)]GlcNAc
# How it was run: as §1
# Fuc(a1-4)GlcNAc = molecular target: Fuc(a1-4)GlcNAc
# How it was run: as §1
# Fuc(b1-3)GlcNAc = molecular target: Fuc(b1-3)GlcNAc
# How it was run: as §1
# Gal(a1-2)Gal = molecular target: Gal(a1-2)Gal
# How it was run: as §1
# Gal(a1-3)Gal = molecular target: Gal(a1-3)Gal
# How it was run: as §1
# Gal(a1-3)Gal(b1-3)GlcNAc = molecular target: Gal(a1-3)Gal(b1-3)GlcNAc
# How it was run: as §1
# [4] = molecular target: Gal(a1-3)Gal(b1-3)GlcNAc(b1-2)Man(a1-3)[Gal(a1-3)Gal(b1-3)GlcNAc(b1-2)Man(a1-6)]Man(b1-4)GlcNAc(b1-4)GlcNAc
# How it was run: as §1
# [5] = molecular target: Gal(a1-3)Gal(b1-3)[Fuc(a1-4)]GlcNAc(b1-2)Man(a1-3)[Gal(a1-3)Gal(b1-3)[Fuc(a1-4)]GlcNAc(b1-2)Man(a1-6)]Man(b1-4)GlcNAc(b1-4)GlcNAc
# How it was run: as §1
# Gal(a1-3)Gal(b1-4)Glc = molecular target: Gal(a1-3)Gal(b1-4)Glc
# How it was run: as §1
# Gal(a1-3)Gal(b1-4)GlcNAc = molecular target: Gal(a1-3)Gal(b1-4)GlcNAc
# How it was run: as §1
# [6] = molecular target: Gal(a1-3)Gal(b1-4)GlcNAc(b1-3)GalNAc
# How it was run: as §1
# [7] = molecular target: Gal(a1-3)Gal(b1-4)[Fuc(a1-3)]GlcNAc
# How it was run: as §1
# [8] = molecular target: Gal(a1-3)Gal(b1-4)[Fuc(a1-3)]GlcNAc(b1-2)Man(a1-3)[Gal(a1-3)Gal(b1-4)[Fuc(a1-3)]GlcNAc(b1-2)Man(a1-6)]Man(b1-4)GlcNAc(b1-4)GlcNAc
# How it was run: as §1
# Gal(a1-3)GalNAc = molecular target: Gal(a1-3)GalNAc
# How it was run: as §1
# [9] = molecular target: Gal(a1-3)[Gal(a1-4)]Gal(b1-4)GlcNAc
# How it was run: as §1
# [10] = molecular target: Gal(a1-4)Gal(b1-3)GlcNAc(b1-2)Man(a1-3)[Gal(a1-4)Gal(b1-3)GlcNAc(b1-2)Man(a1-6)]Man(b1-4)GlcNAc(b1-4)GlcNAc
# How it was run: as §1
# Gal(a1-4)Gal(b1-4)Glc = molecular target: Gal(a1-4)Gal(b1-4)Glc
# How it was run: as §1
# Gal(a1-4)Gal(b1-4)GlcNAc = molecular target: Gal(a1-4)Gal(b1-4)GlcNAc
# How it was run: as §1
# [11] = molecular target: Gal(a1-4)Gal(b1-4)GlcNAc(b1-2)Man(a1-3)[Gal(a1-4)Gal(b1-4)GlcNAc(b1-2)Man(a1-6)]Man(b1-4)GlcNAc(b1-4)GlcNAc
# How it was run: as §1
# [12] = molecular target: Gal(a1-4)Gal(b1-4)GlcNAc(b1-3)Gal(b1-4)Glc
# How it was run: as §1
# Gal(a1-4)GlcNAc = molecular target: Gal(a1-4)GlcNAc
# How it was run: as §1
# Gal(a1-6)Glc = molecular target: Gal(a1-6)Glc
# How it was run: as §1
# Gal(b1-2)Gal = molecular target: Gal(b1-2)Gal
# How it was run: as §1
# Gal(b1-3)Gal = molecular target: Gal(b1-3)Gal
# How it was run: as §1
# Gal(b1-3)Gal(b1-4)GlcNAc = molecular target: Gal(b1-3)Gal(b1-4)GlcNAc
# How it was run: as §1
# [13] = molecular target: Gal(b1-3)Gal(b1-4)GlcNAc(b1-2)Man(a1-3)[Gal(b1-3)Gal(b1-4)GlcNAc(b1-2)Man(a1-6)]Man(b1-4)GlcNAc(b1-4)GlcNAc
# How it was run: as §1
# Gal(b1-3)GalNAc = molecular target: Gal(b1-3)GalNAc
# How it was run: as §1
# [14] = molecular target: Gal(b1-3)GalNAc(a1-3)[Fuc(a1-2)]Gal(b1-4)Glc
# How it was run: as §1
# [15] = molecular target: Gal(b1-3)GalNAc(a1-3)[Fuc(a1-2)]Gal(b1-4)GlcNAc
# How it was run: as §1
# [16] = molecular target: Gal(b1-3)GalNAc(b1-3)Gal(a1-4)Gal(b1-4)Glc
# How it was run: as §1
# [17] = molecular target: Gal(b1-3)GalNAc(b1-4)Gal(b1-4)Glc
# How it was run: as §1
# [18] = molecular target: Gal(b1-3)GalNAc(b1-4)[Neu5Ac(a2-3)]Gal(b1-4)Glc
# How it was run: as §1
# Gal(b1-3)GlcNAc = molecular target: Gal(b1-3)GlcNAc
# How it was run: as §1
# [19] = molecular target: Gal(b1-3)GlcNAc(a1-6)Gal(b1-4)GlcNAc
# How it was run: as §1
# [20] = molecular target: Gal(b1-3)GlcNAc(b1-2)Man(a1-3)[Gal(b1-3)GlcNAc(b1-2)Man(a1-6)]Man(b1-4)GlcNAc(b1-4)GlcNAc
# How it was run: as §1
# [21] = molecular target: Gal(b1-3)GlcNAc(b1-2)Man(a1-3)[Gal(b1-3)GlcNAc(b1-2)Man(a1-6)]Man(b1-4)GlcNAc(b1-4)[Fuc(a1-6)]GlcNAc
# How it was run: as §1
# [22] = molecular target: Gal(b1-3)GlcNAc(b1-3)Gal(b1-3)GlcNAc
# How it was run: as §1
# [23] = molecular target: Gal(b1-3)GlcNAc(b1-3)Gal(b1-4)Glc
# How it was run: as §1
# [24] = molecular target: Gal(b1-3)GlcNAc(b1-3)Gal(b1-4)GlcNAc
# How it was run: as §1
# [25] = molecular target: Gal(b1-3)GlcNAc(b1-3)Gal(b1-4)GlcNAc(b1-6)[Gal(b1-3)GlcNAc(b1-3)]Gal(b1-4)Glc
# How it was run: as §1
# [26] = molecular target: Gal(b1-3)GlcNAc(b1-3)Gal(b1-4)[Fuc(a1-3)]GlcNAc(b1-6)[Gal(b1-3)GlcNAc(b1-3)]Gal(b1-4)Glc
# How it was run: as §1
# [27] = molecular target: Gal(b1-3)GlcNAc(b1-3)GalNAc
# How it was run: as §1
# [28] = molecular target: Gal(b1-3)GlcNAc(b1-6)Gal(b1-4)GlcNAc
# How it was run: as §1
binder,measurement,setting,value
B1,glycan array binding signal (z-score),[1],-0.188
same,glycan array binding signal (z-score),[2],-0.044
same,glycan array binding signal (z-score),[3],-0.188
same,glycan array binding signal (z-score),Fuc(a1-4)GlcNAc,-0.12
same,glycan array binding signal (z-score),Fuc(b1-3)GlcNAc,-0.19
same,glycan array binding signal (z-score),Gal(a1-2)Gal,-0.2
same,glycan array binding signal (z-score),Gal(a1-3)Gal,-0.198
same,glycan array binding signal (z-score),Gal(a1-3)Gal(b1-3)GlcNAc,-0.087
same,glycan array binding signal (z-score),[4],-0.196
same,glycan array binding signal (z-score),[5],-0.188
same,glycan array binding signal (z-score),Gal(a1-3)Gal(b1-4)Glc,-0.19
same,glycan array binding signal (z-score),Gal(a1-3)Gal(b1-4)GlcNAc,-0.102
same,glycan array binding signal (z-score),[6],0.682
same,glycan array binding signal (z-score),[7],-0.19
same,glycan array binding signal (z-score),[8],-0.078
same,glycan array binding signal (z-score),Gal(a1-3)GalNAc,-0.199
same,glycan array binding signal (z-score),[9],-0.158
same,glycan array binding signal (z-score),[10],-0.197
same,glycan array binding signal (z-score),Gal(a1-4)Gal(b1-4)Glc,-0.19
same,glycan array binding signal (z-score),Gal(a1-4)Gal(b1-4)GlcNAc,-0.194
same,glycan array binding signal (z-score),[11],-0.204
same,glycan array binding signal (z-score),[12],-0.187
same,glycan array binding signal (z-score),Gal(a1-4)GlcNAc,-0.197
same,glycan array binding signal (z-score),Gal(a1-6)Glc,-0.188
same,glycan array binding signal (z-score),Gal(b1-2)Gal,-0.194
same,glycan array binding signal (z-score),Gal(b1-3)Gal,-0.193
same,glycan array binding signal (z-score),Gal(b1-3)Gal(b1-4)GlcNAc,-0.201
same,glycan array binding signal (z-score),[13],10.2
same,glycan array binding signal (z-score),Gal(b1-3)GalNAc,-0.185
same,glycan array binding signal (z-score),[14],-0.187
same,glycan array binding signal (z-score),[15],-0.198
same,glycan array binding signal (z-score),[16],-0.19
same,glycan array binding signal (z-score),[17],-0.191
same,glycan array binding signal (z-score),[18],-0.193
same,glycan array binding signal (z-score),Gal(b1-3)GlcNAc,-0.154
same,glycan array binding signal (z-score),[19],-0.197
same,glycan array binding signal (z-score),[20],-0.169
same,glycan array binding signal (z-score),[21],-0.198
same,glycan array binding signal (z-score),[22],-0.136
same,glycan array binding signal (z-score),[23],-0.193
same,glycan array binding signal (z-score),[24],-0.186
same,glycan array binding signal (z-score),[25],-0.168
same,glycan array binding signal (z-score),[26],-0.009
same,glycan array binding signal (z-score),[27],-0.19
same,glycan array binding signal (z-score),[28],-0.196
